# Experimental data as given in publication PMC6919601, “Identification of Plasmodium dipeptidyl aminopeptidase allosteric inhibitors by high throughput screening” (PLoS ONE, 2019).
# The whole screen tested about 110,000 compounds, of which about 230 (0.21%) showed an effect of 50% or more. The list shows a part of the results.
# Target: DPAP1 (Plasmodium falciparum, UniProt Q8IIJ9)
# Assay: primary screen, percent inhibition; read by cleavage of a fluorogenic dipeptide substrate; higher = more effect of the substance
# Parameters: species or system P. falciparum D10 trophozoite lysates; single well
# 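Also: 30 min substrate incubation versus DMSO and 10 µM JCP410 controls.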
# DPAP1, sequence (Q8IIJ9 whole entry, looked up): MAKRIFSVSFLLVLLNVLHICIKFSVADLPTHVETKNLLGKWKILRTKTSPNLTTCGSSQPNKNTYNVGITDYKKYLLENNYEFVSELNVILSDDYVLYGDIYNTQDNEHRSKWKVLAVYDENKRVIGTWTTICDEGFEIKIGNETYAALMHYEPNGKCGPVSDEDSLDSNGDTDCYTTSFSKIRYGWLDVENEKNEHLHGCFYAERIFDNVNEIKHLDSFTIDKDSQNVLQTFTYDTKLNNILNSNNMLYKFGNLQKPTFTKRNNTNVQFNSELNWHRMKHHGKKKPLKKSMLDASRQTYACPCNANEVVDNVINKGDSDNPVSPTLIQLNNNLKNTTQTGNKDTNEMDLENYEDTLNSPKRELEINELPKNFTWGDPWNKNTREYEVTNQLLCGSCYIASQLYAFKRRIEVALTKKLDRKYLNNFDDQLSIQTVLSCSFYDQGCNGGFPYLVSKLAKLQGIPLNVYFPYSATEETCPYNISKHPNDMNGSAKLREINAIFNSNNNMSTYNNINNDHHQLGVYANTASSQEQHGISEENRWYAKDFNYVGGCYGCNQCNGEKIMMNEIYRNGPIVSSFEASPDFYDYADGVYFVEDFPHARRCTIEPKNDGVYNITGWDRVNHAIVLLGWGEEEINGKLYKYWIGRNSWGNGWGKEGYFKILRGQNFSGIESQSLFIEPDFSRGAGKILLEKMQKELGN
row,SMILES,% Inhibition @ 10 uM
1,COCC(=O)n1nc(-c2ccco2)nc1NCc1ccc(Cl)cc1,-3.24%
2,CCN1CNC(=S)N(Cc2ccccc2)C1,-0.169%
3,CCOC(=O)c1c(C=O)c2ccccc2n1CC,1.63%
4,CCc1nonc1NC(=O)c1ccc(OCC(C)C)cc1,-3.49%
5,O=C(NCc1ccccc1)/C(NC(=O)c1ccccc1)=C(/Sc1ccccn1)c1ccccc1,-0.183%
6,CC(C)OCCCNC(=O)c1cn(C2CCCC2)c(=O)c2c1c1ccccc1n2C,0.163%
7,Cc1nn(Cc2cccc3ccccc23)c(C)c1NC(=O)c1ccc(F)cc1,-0.67%
8,Cc1ccc2nc(Cl)c(-n3nc(C)cc3C)nc2c1,6.83%
9,O=C(Nc1ccccc1)c1csc2c1CCCC2,0.13%
10,OC12OC34CCCCC3CC13CCCC2CC1CCCCC13O4 (stereo not shown),-6.17%
11,CCCN(Cc1c(C)n(C)n(-c2ccccc2)c1=O)CC1CC1,-1.5%
12,COc1ccc(CN(CCC2(Cc3ccccc3)CCOC(C)(C)C2)C(C)=O)cc1 (stereo not shown),14.2%
13,CN(C)c1nc2nonc2nc1N,0.596%
14,CCOc1cc(C2C3=C(O)CC(C)(C)CC3=NC3=C2C(=O)CC(C)(C)C3)ccc1OCC(=O)O (stereo not shown),-2.88%
15,CNC(=O)C1Cc2ccccc2CN1S(=O)(=O)c1cccs1 (stereo not shown),6.05%
16,Cc1cc2c(C)nc3c(Cl)cccc3c2o1,0.392%
17,CCOc1ccccc1NC(=O)c1ccc(Cl)c(Cl)c1,2.98%
18,N#Cc1ccc(Oc2ccc(NC(=O)c3ccc(Br)cc3)cc2)cc1,-5.33%
19,O=C1CCCN1CCc1ccccc1,0.343%
20,CCCOC1(C(F)(F)F)NC(=O)N(Cc2ccccn2)C1=O (stereo not shown),-3.33%
21,COc1ccc(-n2ncc3c(SCC(=O)Nc4nc(C(C)(C)C)cs4)ncnc32)cc1,-3.08%
22,COc1cccc(CNc2nc3c(-c4ccc(C)cc4)nnn3c3ccccc23)c1,15.6%
23,Cc1c(CNCc2ccco2)c(C(=O)O)c(C)n1Cc1ccc(F)cc1,-5.49%
24,CCCCC12CNCC(C)(CNC1)C2=O,-3.49%
25,CCN(CC)CCCNc1nc2cc(OC)c(OC)cc2c2nc(-c3cccnc3)nn12,2.6%
26,Nc1cc(O)nc(SCC(=O)Nc2nnc(-c3ccccc3)s2)n1,1.96%

row,SMILES,% Inhibition @ 10 uM
1,CCc1ccc(/C=C(/C#N)c2nc(-c3ccc(Cl)cc3)cs2)cc1,-3.04%
2,CSc1nc(-c2ccco2)nn1S(=O)(=O)c1ccc(C)cc1,2.32%
3,CCCCN(C)Cc1ccnc2ccccc12,-0.446%
4,COc1ccc(C2CC(C(F)(F)F)n3ncc(C(=O)Nc4cc(Cl)ccc4O)c3N2)cc1 (stereo not shown),-10.5%
5,CSCCCN(C)C1CCN(C)CC1,-2.95%
6,O=C(c1sc2ccccc2c1Cl)N1CCc2ccccc21,-0.342%
7,NC(=O)Cn1c(=O)n(Cc2ccc(C(=O)NCc3ccco3)cc2)c(=O)c2sccc21,-7.85%
8,Cc1sc(NC(=O)c2ccccc2)c(C(=O)NC2CCCCC2)c1C,16%
9,O=c1c(=O)n(Cc2cccc(C(F)(F)F)c2)ccn1Cc1ccccc1,-4.11%
10,COc1cc(/C=C2/Sc3ccccc3C2=O)cc(Br)c1O,2.7%
11,COc1ccc(-c2noc(CN(C(=O)c3c(OC)cccc3OC)C(C)C)n2)cc1,-0.942%
12,CCN(CC)C(=O)C1CCCN(Cc2cc(OC)ccc2OC)C1 (stereo not shown),-0.127%
13,CCN(CC)C(=O)c1sc2nc3c(cc2c1N)N1CCC3CC1,1.84%
14,CCC1CCc2nc3sc(C(=O)NC4CCCC4)c(N)c3cc2C1 (stereo not shown),1.68%
15,c1ccc(-c2nc(-c3ccco3)n3ccccc23)cc1,0.874%
16,COCc1cc(C)nc2sc(C(=O)Nc3cccc(C(F)(F)F)c3)c(N)c12,3.8%
17,Cc1cccc(C(=O)NCC2CCCO2)c1 (stereo not shown),-7.02%
18,CCCNC(=O)CN(c1ccc(C)cc1C)S(C)(=O)=O,12.8%
19,O=c1cc(CO)occ1OCc1ccccc1,3.83%
20,COc1ccc2oc(C)c(C(=O)c3ccccc3)c2c1,-5%
21,O=C(CCn1c(=O)c2cccn2c2cccnc21)NC1CCCCCC1,-5.43%
22,CC1CCN(c2ccc(NC(=O)c3cccs3)cc2)CC1,0.956%
23,COc1ccc(-c2cc(C(=O)NCc3ccccn3)c3cc(C(C)C)ccc3n2)cc1,1.16%
24,COC(=O)c1ccc(C2C3=C(O)CCCC3=Nc3nn(-c4ccccc4)c(O)c32)cc1 (stereo not shown),2.46%
25,O=C(Nc1ccc(NC(=O)c2cccnc2)cc1)c1ccc(NC(=O)c2cccnc2)cc1,-3.01%
26,CCOCCCNS(=O)(=O)c1cc(-c2onc(C)c2C)ccc1OC,-5.09%

row,SMILES,% Inhibition @ 10 uM
1,Cc1[nH]nc(NC(=O)CCCC(=O)c2ccccc2)c1Br,-6.91%
2,COC(=O)/C(C#N)=C/c1ccc(Cl)cc1,-2.87%
3,O=C(Nc1cccc(Cl)c1)N1CCN(Cc2ccccc2)CC1,-7.32%
4,O=S(=O)(c1ccc(-c2csc(Nc3ccc(F)cc3)n2)cc1)N1CCCCC1,-4.08%
5,CCc1nn2c(=O)c(S(=O)(=O)N3CCN(C(=O)c4ccco4)CC3)c(C)nc2s1,2.5%
6,COc1cc2nc(N3CCN(C4CCCCC4)CC3)n3nc(-c4ccccc4)nc3c2cc1OC,2.6%
7,CC1CCC2(NC1)OC1CC3C4CC=C5CC(O)CCC5(C)C4CCC3C1(C)[C@@H]2C (stereo partly shown),-3.13%
8,CCc1nc2ccc(C(=O)NC(C)Cc3ccco3)cc2nc1CC (stereo not shown),-0.0309%
9,O=C(CCCN1C(=O)c2ccccc2C1=O)NC(c1ccccc1)C1CCCC1 (stereo not shown),-13%
10,O=C(Nc1ccc(OC(F)F)c(Cl)c1)C12CC3CC(C1)CC(n1cncn1)(C3)C2,-2.32%
11,COCCN1C(=O)c2oc3cc(C)c(C)cc3c(=O)c2C1c1ccc(SC)cc1 (stereo not shown),-1.11%
12,Cc1ccc(-c2cc(C(=O)N3CCN(C(=O)c4ccco4)CC3)[nH]n2)cc1C,4.6%
13,O=C(COc1cccc(Br)c1)Nc1ccc2c(c1)OCO2,-7.61%
14,COc1ccc(CNc2nc(-c3ccc(Cl)cc3)nn2C(=O)c2ccco2)cc1,-6.71%
15,Cc1ccc2nsnc2c1S(=O)(=O)N1CCN(C(=O)C2CCCO2)CC1 (stereo not shown),0.163%
16,OCCN1CCN(c2ncccn2)CC1,-0.267%
17,CN1CCN(C(=O)C23CC4CC(C)(CC(C)(C4)C2)C3)CC1,-3.42%
18,O=C(/C=C/c1ccccc1Cl)NCc1ccco1,1.83%
19,COc1ccc(NC(=O)CN(c2cc(C)ccc2C)S(=O)(=O)c2ccccc2)cc1OC,-7.28%
20,CCc1cccc(C)c1NC(=O)CCCOc1ccccc1OC,-3.92%
21,c1nc(NCc2ccc3c(c2)OCO3)c2nc[nH]c2n1,-7.15%
22,Cn1c(C(=O)O)c(CNCCc2cccs2)c2ccccc21,-3.21%
23,O=C(CSCc1cnn(-c2ccccc2)c1-n1cccc1)NC1CCCCCC1,3.87%
24,Cc1cc(Cl)ccc1OCC(=O)Nc1ccc(S(=O)(=O)N2CCc3ccccc32)cc1,-4.01%
25,CCC(Cc1ccccc1)NC(=O)C1CCN(S(=O)(=O)c2c(C)noc2C)CC1 (stereo not shown),-4.46%
26,Cc1ccc(N(CC(=O)N2CCc3ccccc3C2)S(C)(=O)=O)cc1,-1.24%

row,SMILES,% Inhibition @ 10 uM
1,O=C(CCCOc1ccc(Cl)cc1Cl)Nc1cc(C(F)(F)F)ccc1Cl,-5.32%
2,COc1ccc(CNCc2c(C(=O)O)c(C)n(Cc3ccc(C)cc3)c2C)cc1OC,-3.67%
3,Cc1nc2c(C)c(-c3ccccc3)nn2c(C)c1Cl,6.18%
4,COC(=O)C1=C(C)NC(=O)CC1c1ccc(Cl)c(Cl)c1 (stereo not shown),5.04%
5,CC12CC1(C)C(=O)N(c1cc(Cl)cc(Cl)c1)C2=O (stereo not shown),1.48%
6,CCOC(=O)c1ccc2c(c1)C1CN(C)CCC1N2CC(F)(F)F (stereo not shown),-1.66%
7,CCc1ccc(C2c3c(-c4ccccc4O)n[nH]c3C(=O)N2CCOC)cc1 (stereo not shown),0.366%
8,FC(F)Oc1ccc(C2C=C(c3ccc(Cl)cc3)Nc3nnnn32)cc1 (stereo not shown),-1.62%
9,COc1cccc(-c2nc(-c3ccc(C)cc3)no2)c1,-4.03%
10,CC(C)C[C@H](NC(=O)c1cccc(-c2cccnc2)c1)C(=O)NCC#N,-8.81%
11,O=C1c2ccccc2-c2[nH]nc3c(S(=O)(=O)O)ccc1c23,2.47%
12,Cc1nnc(-c2ccccc2O)n1-c1ccccc1,3.82%
13,COc1ccc(C(=O)N2CCN(Cc3ccc(F)cc3)CC2)cc1OC,-5.4%
14,CC1CCN(c2nc3c(c(=O)n(C)c(=O)n3C)n2CC(=O)c2ccc(Br)cc2)CC1,-3.09%
15,COc1ccc(-n2c(C)cc(=O)c3c2CC(C)(C)CC3=O)cc1,-5.23%
16,CCN1CCN(C2=NC(=O)/C(=C/c3ccc(O)cc3)S2)CC1,-4.4%
17,COc1ccc(-c2cc(C(F)F)n3ncc(C(=O)NC4CCCCC4)c3n2)cc1,0.778%
18,CC(Oc1ccc(Cl)cc1Cl)C(=O)Nc1ccc2c(c1)OCCO2 (stereo not shown),-1.24%
19,CCCCOc1ccc(C(=O)Nc2ccc(N3CCN(C)CC3)cc2)cc1,0.52%
20,C=CCN(CC=C)C(=O)/C=C/c1ccccc1,0.317%
21,Cc1nn(-c2ccccc2)c2c1C(c1cccc3ccccc13)C(C#N)=C(N)O2 (stereo not shown),2.69%
22,O=C(Cc1ccccc1)Nc1cccc(O)c1,5.25%
23,Nc1nc(CN2c3cccc4cccc(c34)S2(=O)=O)nc(N2CCCCC2)n1,3.24%
24,O=C(NC1CCCCC1)c1ccc(O)nn1,2.29%
25,O=C1CS/C(=N\c2ccccc2O)N1c1ccccc1O,-6.79%
